Reference: PubChem BioAssay AID1745849 (National Center for Advancing Translational Sciences (NCATS), 2022)
Out of some 2,100 compounds screened, about 320 (15%) were called active. The shares of active, inactive and inconclusive entries below differ from those in the screen. Calls come from the whole dose curve; as a rule, active = well fitted cell-killing curve with a large enough effect; inconclusive = small, poorly fitted or top-dose-only effect, or effect the other way; inactive = flat fitted curve, though single readings scatter. Potencies beside an inconclusive call are fits to weak or partial responses and may not hold up.

Assay: Viability Counterscreen for CMV-Luciferase Assay of Inhibitors of ATXN expression; note: nearly all actives have a fitted effect of over 55% in size
Conditions: HEK-293 CMV-luciferase cells viability, protease fluorescence, 24 h; series mostly up to 57.5 µM; activity change, negative = cytotoxicity: at the top concentration
Procedure, shortened: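 In the same wells, a multiplexed format measured viability and then the CMV-luciferase signal in HEK-293 cells following 24 hr compound exposure at several concentrations. The viability substrate was Gly-Phe-AFC at 25 uM final.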
% is set by controls: 0 for no effect and ±100 for the full control effect; potency is the fitted concentration of half-maximal effect; tags give direction and shape of the fitted curve.

Row | SMILES | Potency | activity change, negative = cytotoxicity
1 | CCOC(=O)[C@]12Cc3ccsc3[C@H]1N(Cc1ccccc1)C(=O)c1ccccc12 | inconclusive: 3.55 µM [cytotoxic, partial curve, poor fit] | –
2 | C[C@H]1[C@@H](OS(=O)(=O)O)C[C@@H]2C[C@H]([C@@H](O)c3cc(=O)[nH]c(=O)[nH]3)NC3=NC[C@H]1N32 | active: 12.6 µM | –
3 | O=c1[nH]c2ccccc2n1C1CCN(C(CCc2ccccc2)c2nnnn2C2CCCC2)CC1 (configuration not stated) | active: 11.2 µM | –
4 | COc1cc2c(cc1OC)-c1c3c(cc4c1[C@@H](C2)N(C)CC4)OCO3 | inconclusive: 2.82 µM [cytotoxic, partial curve, poor fit] | –
5 | COc1ccc(CC2C(=O)NC(C)C(=O)N(C)C3C(=O)N(C)C(Cc4ccc(O)c(c4)Oc4ccc(cc4)C3O)C(=O)NC(C)C(=O)NC(C)C(=O)N2C)cc1 (configuration not stated) | active: 0.355 µM | –
6 | CCCCCCC(=O)N/N=C/c1c(O)n(CCc2ccccc2)c(=O)[nH]c1=O | active: 8.91 µM | –
7 | COc1cc2c(cc1OC)C1C(=O)c3ccc4c(c3OC1CO2)CC(C(C)C)O4 (configuration not stated) | inconclusive: 14.1 µM [cytotoxic, partial curve] | –
8 | C[C@]12CC[C@H](O)C[C@H]1CC[C@@H]1[C@@H]2CC[C@]2(C)[C@@H](C3=CC(=O)OC3)CC[C@]12O | active: 0.794 µM | –
9 | C[C@]12CCC3C(CCC4=CC(O)CC[C@@]43/C=N/O)C1(O)CCC2C1=CC(=O)OC1 (some centres not stated) | active: 1.41 µM | –
10 | CCC(c1nnnn1-c1ccc2c(c1)OCCO2)N1CCC(n2c(=O)[nH]c3ccccc32)CC1 (configuration not stated) | inconclusive: 3.16 µM [cytotoxic, partial curve, poor fit] | –
11 | CCCCCn1c(NC(=O)c2ccco2)c(C(=O)OCC)c2nc3ccccc3nc21 | inconclusive: 5.01 µM [cytotoxic, partial curve, poor fit] | –
12 | Cc1ccc(N2C(=O)NC(=O)/C(=C\c3cc(C)n(-c4sc5c(c4C#N)CCCC5)c3C)C2=O)cc1 | inconclusive: 12.6 µM [cytotoxic, partial curve, poor fit] | –
13 | Cc1nc2ccccc2c(=O)n1/N=C/c1cc(Br)cc(Br)c1O | inconclusive: 39.8 µM [rising, single point] | –
14 | Cc1ccc(/C=C2\C(=O)NC(=S)N(c3ccccc3F)C2=O)s1 | active: 3.98 µM | –
15 | N#Cc1cn(C2OC(CO)C(O)C2O)c2ncnc(N)c12 (configuration not stated) | inconclusive: 0.0562 µM [cytotoxic, full curve] | –
16 | COc1cc(C(=O)NN=Cc2ccc(N(CCCl)CCCl)cc2)cc(OC)c1OC | inconclusive: 8.91 µM [cytotoxic, single point] | –
17 | C=CCCC[C@@H]1OC(=O)CNC(=O)C([C@@H](C)CC)NC(=O)[C@@H]2CCCN2C(=O)C([C@@H](C)CC)OC(=O)[C@H](Cc2ccccc2)N(C)C(=O)[C@H](C(C)C)NC(=O)C1(C)C (some centres not stated) | active: 3.55 µM | –
18 | O=C1NC(=O)C2(CCCc3ccc(N(CCCl)CCCl)cc32)N1 (configuration not stated) | active: 11.2 µM | –
19 | COc1cc2nc(CN3CC=C(c4ccccc4)CC3)[nH]c(=O)c2cc1OC | inconclusive: 2 µM [cytotoxic, full curve] | –
20 | C[C@@H]1C[C@@H]([C@H](O)CC2CC(=O)NC(=O)C2)C(=O)[C@@H](C)C1 | active: 1.78 µM | –
21 | COc1cc2c(cc1OC)[C@@H]1C(=O)c3ccc4c(c3O[C@@H]1CO2)C[C@H](C(C)C)O4 | inconclusive: 11.2 µM [cytotoxic, partial curve, poor fit] | –
22 | CCCCCn1c(=O)c(C(=O)NCc2ccncc2)c(O)c2ccccc21 | inconclusive: 39.8 µM [cytotoxic, single point] | –
23 | C[C@H]1CCC[C@@H](O)CCC/C=C/c2cc(O)cc(O)c2C(=O)O1 | active: 1.58 µM | –
24 | Clc1ccc2[nH]c3c(c2c1)CCNC3 | inconclusive: 0.794 µM [cytotoxic, full curve, poor fit] | –

Row | SMILES | Potency | activity change, negative = cytotoxicity
25 | COc1ccc(CC2NCC(O)C2OC(C)=O)cc1 (configuration not stated) | active: 0.282 µM | –
26 | COc1ccc2c(c1)C(c1ccc(N(CCCl)CCCl)cc1)=NCC2 | – | inactive: -25.6%
27 | CC(=O)OC(C)(C)/C=C/C(=O)C(C)(O)C1[C@H](O)C[C@@]2(C)C3CC=C4C(CC[C@@H](O)C4(C)C)[C@]3(CO)C(=O)C[C@]12C (some centres not stated) | inconclusive: 0.316 µM [cytotoxic, full curve, poor fit] | –
28 | COc1ccc(CCNC(=O)c2c(N)n(CCN3CCOCC3)c3nc4ccccc4nc23)cc1 | inconclusive: 31.6 µM [rising, partial curve] | –
29 | COc1ccc(CCNCc2ccc(F)cc2)cc1OC | – | inactive: -21.2% [at 11.4 µM]
30 | N#Cc1c(Br)n(C2OC(CO)C(O)C2O)c2ncnc(N)c12 (configuration not stated) | inconclusive: 3.16 µM [cytotoxic, single point] | –
31 | CCCCN=C[C@]12CCC(O)CC1(O)CCC1[C@@H]2CC[C@]2(C)[C@H](C3C=CC(=O)O3)CCC12O (some centres not stated) | active: 1.78 µM | –
32 | CC(C)c1oc(=O)cc2c1[C@@H](O)[C@H]1OC(=O)[C@@]3(C)CC[C@@H](O)[C@@]2(C)C13 (some centres not stated) | inconclusive: 3.55 µM [cytotoxic, partial curve, poor fit] | –
33 | C[C@@H]1O[C@@H](O[C@@H]2C=C3CC[C@@H]4C(CC[C@]5(C)[C@@H](c6ccc(=O)oc6)CC[C@]45O)[C@@]3(C)CC2)[C@H](O)[C@H](O)[C@H]1O (some centres not stated) | active: 8.91 µM | –
34 | CCOC(=O)c1c(N)n(CCN2CCCCC2)c2nc3ccccc3nc12 | inconclusive: 31.6 µM [rising, partial curve] | –
35 | CCC(C)OC(=O)c1c(N)n(Cc2cccs2)c2nc3ccccc3nc12 (configuration not stated) | inconclusive: 39.8 µM [rising, single point] | –
36 | COC12C(COC(N)=O)C3=C(C(=O)C(C)=C(N)C3=O)N1CC1C2N1C (configuration not stated) | active: 12.6 µM | –
37 | CCC(C)N1C(=O)/C(=C\c2cnc(N(C)C)nc2)C(=O)NC1=S (configuration not stated) | – | inactive: 2.18%
38 | O=c1[nH]c2ccccc2n1C1CCN(C(c2cc3ccccc3o2)c2nnnn2-c2ccc3c(c2)OCCO3)CC1 (configuration not stated) | inconclusive: 1.58 µM [cytotoxic, partial curve] | –
39 | CC(=O)OC1CC2(O)C3CCC4CC(O)CCC4(C)C3CCC2(C)C1C1=CC(=O)OC1 (configuration not stated) | active: 0.501 µM | –
40 | N#Cc1ncc(N=Cc2ccc(N(CCCl)CCCl)cc2)s1 | inconclusive: 14.1 µM [cytotoxic, partial curve] | –
41 | Cc1nc2cc(-c3ccccc3)nn2c(C)c1CCC(=O)N1CCC2(CC1)OCCO2 | inconclusive: 22.4 µM [cytotoxic, single point] | –
42 | CCCCC(=O)N/N=C/c1c(O)n(CCC2=CCCCC2)c(=O)[nH]c1=O | inconclusive: 12.6 µM [cytotoxic, partial curve, poor fit] | –
43 | Cc1cc(N(CCCl)CCCl)ccc1C=NNC(=O)c1cccnc1 | inconclusive: 3.16 µM [cytotoxic, full curve] | –
44 | O=C1NC(=O)N(CCc2ccc(F)cc2)C(=O)/C1=C/C=C/c1ccccc1 | active: 7.94 µM | –
45 | COc1cccc2c1cc([N+](=O)[O-])c1c(C(=O)O)cc3c(c12)OCO3 | inconclusive: 31.6 µM [cytotoxic, single point] | –
46 | COC1C(O)C(C)OC(OC2C(Oc3cccc4c(O)c5c(=O)oc6ccc(C)c7c(=O)oc(c34)c5c67)OC(C)C(O)C2O)C1O (configuration not stated) | – | inactive: 7.77% [at 11.4 µM]
47 | CC(C)(C)n1nnnc1C(CCc1ccccc1)N1CCC(n2c(=O)[nH]c3ccccc32)CC1 (configuration not stated) | active: 20 µM | –
